According to the supplement of paper PMC7826260:
This is one part of the list. The data describe in vitro nicking of single-stranded DNA by Rep domains at 3 µM enzyme and 37 °C for 1 h; the strands have 90 letters, of which the middle is given. Uncut reads are compared with the no-enzyme pool on a log2 scale; uncut sequences lie near 0, cut ones below; no hit call is given. The scaling is to total reads; where an enzyme cuts many sequences, the uncut ones exceed 0.

Experiments:
Assay in all cases: uncleaved DNA left, log2 of reads against the no-enzyme library (log2 ratio); higher = less cleavage (more negative = more Rep cleavage of the k-mer); sequences stand for … in CTCGTCCG…ACCGGAGA
[1] = system: T1, Rep nickase domain of Muscovy duck circovirus
T1 sequence (residues 1-111 of Rep, tag left off): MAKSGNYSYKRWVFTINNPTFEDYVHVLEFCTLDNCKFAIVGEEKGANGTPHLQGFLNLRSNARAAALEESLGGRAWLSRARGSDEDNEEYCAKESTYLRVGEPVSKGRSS
Procedure: (§1)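 A pool of 90-nt single-stranded DNAs with seven random bases just before the constant AC of the nick site (name = the seven bases) was cut by 3 µM recombinant His6-SUMO-tagged Rep nickase domain (300 nM DNA, 50 mM HEPES pH 8.0, 50 mM NaCl, 1 mM MnCl2, 1 h, 37 °C, three replicates). Uncut DNA was amplified and sequenced.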

[2] = system: T2, Rep nickase domain of banana bunchy top virus
T2 sequence (residues 1-94 of Rep, tag left off): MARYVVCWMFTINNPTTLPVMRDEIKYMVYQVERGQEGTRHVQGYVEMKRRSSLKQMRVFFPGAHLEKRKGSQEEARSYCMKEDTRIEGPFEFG
Procedure: as §1

[3] = system: T3, Rep nickase domain of cabbage leaf curl virus
T3 sequence (residues 1-116 of Rep, tag left off): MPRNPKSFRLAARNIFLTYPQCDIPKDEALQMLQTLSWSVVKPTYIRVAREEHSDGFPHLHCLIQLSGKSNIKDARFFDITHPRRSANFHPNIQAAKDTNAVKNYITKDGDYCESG
Procedure: as §1

[4] = system: T4, Rep nickase domain of chickpea chlorotic dwarf virus
T4 sequence (residues 1-124 of Rep, tag left off): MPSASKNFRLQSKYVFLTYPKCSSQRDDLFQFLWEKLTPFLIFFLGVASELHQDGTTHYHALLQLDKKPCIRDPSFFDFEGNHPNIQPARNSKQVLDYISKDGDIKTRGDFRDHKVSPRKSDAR
Procedure: as §1

[5] = system: T5, Rep nickase domain of faba bean necrotic yellows virus
T5 sequence (residues 1-98 of Rep, tag left off): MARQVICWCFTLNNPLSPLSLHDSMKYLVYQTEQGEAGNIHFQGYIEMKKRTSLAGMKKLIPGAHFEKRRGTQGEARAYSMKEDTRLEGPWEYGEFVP
Procedure: as §1

[6] = system: T6, Rep nickase domain of maize striate mosaic virus
T6 sequence (residues 1-117 of Rep, tag left off): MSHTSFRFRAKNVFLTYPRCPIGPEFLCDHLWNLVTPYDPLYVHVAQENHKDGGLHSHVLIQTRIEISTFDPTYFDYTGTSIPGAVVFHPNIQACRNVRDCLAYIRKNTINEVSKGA
Procedure: as §1

[7] = system: T7, Rep nickase domain of porcine circovirus 2
T7 sequence (residues 2-116 of Rep, tag left off): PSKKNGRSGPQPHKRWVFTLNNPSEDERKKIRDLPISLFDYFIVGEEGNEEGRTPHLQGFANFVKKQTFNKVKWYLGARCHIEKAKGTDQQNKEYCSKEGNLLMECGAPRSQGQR
Procedure: as §1

[8] = system: T8, Rep nickase domain of tomato golden mosaic virus
T8 sequence (residues 1-124 of Rep, tag left off): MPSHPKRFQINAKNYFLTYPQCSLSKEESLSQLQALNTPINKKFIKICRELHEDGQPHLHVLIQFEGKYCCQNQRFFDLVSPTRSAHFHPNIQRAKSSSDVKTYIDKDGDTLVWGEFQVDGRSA
Procedure: as §1

[9] = system: T9, Rep nickase domain of tomato yellow leaf curl virus
T9 sequence (residues 1-136 of Rep, tag left off): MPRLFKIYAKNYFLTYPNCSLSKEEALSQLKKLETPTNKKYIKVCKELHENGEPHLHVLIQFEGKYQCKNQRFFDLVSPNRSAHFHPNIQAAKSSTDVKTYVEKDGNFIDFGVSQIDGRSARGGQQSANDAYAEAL
Procedure: as §1

[10] = system: T10, Rep nickase domain of wheat dwarf virus
T10 sequence (residues 1-137 of Rep, tag left off): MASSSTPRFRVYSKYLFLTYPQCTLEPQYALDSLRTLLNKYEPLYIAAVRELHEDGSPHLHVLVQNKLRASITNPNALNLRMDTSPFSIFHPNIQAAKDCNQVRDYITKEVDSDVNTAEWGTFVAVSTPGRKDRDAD
Procedure: as §1

Sequence | uncleaved DNA left (log2) [1] | uncleaved DNA left (log2) [2] | uncleaved DNA left (log2) [3] | uncleaved DNA left (log2) [4] | uncleaved DNA left (log2) [5] | uncleaved DNA left (log2) [6] | uncleaved DNA left (log2) [7] | uncleaved DNA left (log2) [8] | uncleaved DNA left (log2) [9] | uncleaved DNA left (log2) [10]
ACTCGAT | -0.00454 | -0.0825 | -0.141 | -0.13 | -0.0134 | -0.317 | -0.171 | -0.000514 | -0.134 | -0.104
GATCATA | 0.0987 | 0.0615 | 0.284 | -0.0311 | -0.00881 | 1.28 | 0.1 | -0.0107 | 0.0239 | 0.249
CTTAATG | -7.18e-05 | 0.0338 | -0.741 | -0.589 | 0.0687 | -1.02 | 0.0951 | 0.016 | 0.0864 | -0.072
ATTAACC | -0.128 | -0.0622 | -0.405 | -1.52 | -0.00361 | -0.788 | -0.571 | -0.0268 | -0.0937 | -0.0893
ATATTGT | -0.431 | -0.139 | -0.659 | -1.12 | -0.0259 | -1.4 | -0.667 | -0.128 | -0.104 | -0.259
TTCGTCT | -0.00614 | -0.127 | 0.00864 | -1.75 | -0.108 | -0.811 | -0.175 | -0.184 | -0.0802 | -0.138
AGGCTGG | 0.0625 | 0.0428 | 0.223 | 0.91 | -0.079 | 0.999 | 0.344 | 0.0703 | -0.121 | 0.0826
GTCTTGC | -0.0108 | 0.0701 | 0.215 | 0.542 | -0.0766 | 0.686 | 0.0598 | 0.104 | 0.0133 | -0.00739
CCTAGAG | 0.13 | 0.144 | -0.621 | -0.469 | 0.114 | -1.04 | 0.22 | 0.0791 | 0.121 | -0.00718
ATGTGAC | 0.0692 | 0.0827 | 0.225 | 0.435 | 0.038 | 0.0802 | 0.197 | -0.0109 | 0.176 | 0.00722
CATATGG | -0.000167 | -0.00455 | -0.3 | -0.0184 | 0.167 | -0.968 | 0.195 | -0.0111 | -0.0708 | 0.0318
AAGGACA | -0.0328 | 0.0682 | 0.295 | 0.677 | -0.0109 | 0.823 | 0.0377 | 0.0141 | -0.0341 | 0.0392
CAGTCAT | -0.059 | -0.982 | 0.194 | -0.536 | -0.229 | 0.358 | -3.89 | 0.0509 | 0.221 | 0.144
ACAATGA | -0.0127 | 0.0727 | -0.264 | -0.134 | -0.0264 | -0.885 | 0.0753 | 0.148 | -0.0565 | -0.0993
TCGAATA | -0.0404 | 0.0662 | -0.000929 | -0.985 | 0.0433 | -0.202 | -0.162 | 0.00823 | 0.01 | 0.0935
GTCTAAT | -0.218 | -0.0015 | 0.373 | 0.852 | -0.068 | 1.61 | -1.44 | 0.144 | -0.0621 | 0.112
CTATTAA | 0.101 | 0.109 | -0.055 | -0.46 | 0.0364 | -0.638 | -0.0124 | 0.237 | 0.0173 | 0.121
ACCTACG | -0.122 | -0.0431 | -0.727 | 0.356 | 0.0692 | -0.44 | 0.154 | -0.0832 | -0.0885 | 0.0353
GCGCGGC | 0.0553 | 0.121 | 0.0847 | 0.333 | 0.0843 | 0.105 | 0.149 | 0.169 | 0.0112 | 0.126
TGGTGCA | -0.0566 | -0.0769 | 0.0615 | -0.0734 | -0.103 | -0.272 | -0.0947 | -0.0199 | 0.0159 | -0.0465
CCCGCCT | -0.264 | -0.123 | -0.393 | -1.81 | -0.165 | -0.613 | -0.305 | -0.0977 | -0.251 | -0.249
ACTCCCA | -0.245 | -0.178 | -0.319 | -1.21 | 0.0209 | -0.511 | -0.555 | -0.123 | -0.183 | -0.11
AAGTCAA | -0.0215 | 0.00417 | -0.0102 | -0.594 | 0.0253 | -0.257 | -2.64 | 0.0627 | 0.0589 | 0.174
TCGTCGC | -0.111 | -0.0227 | -0.644 | -0.512 | -0.0657 | -1.03 | -0.00807 | -0.306 | -0.122 | -0.138
AGCGTAT | 0.18 | 0.142 | 0.229 | 0.349 | 0.136 | 1.06 | -0.156 | 0.0927 | 0.154 | 0.0781
CTGTCCA | -0.119 | -0.0286 | -0.0029 | -0.821 | -0.0983 | -0.366 | -0.323 | -0.131 | -0.0871 | -0.0258
GATGCTA | 0.0269 | 0.0805 | 0.238 | 0.207 | 0.0374 | 0.458 | 0.0212 | 0.18 | 0.0894 | 0.116
AGTAACA | 0.0801 | 0.11 | -0.14 | -1.37 | 0.0509 | 0.0566 | -0.387 | 0.163 | 0.0587 | 0.119
CCGAAGC | -0.0856 | -0.246 | -0.164 | -0.565 | -0.203 | -0.912 | 0.0188 | -0.137 | -0.0286 | -0.191
GGATGGT | -0.0558 | 0.161 | 0.615 | 1.14 | 0.0369 | 1.85 | -0.334 | 0.0478 | 0.0182 | 0.168
